# Experimental data as given in PubChem BioAssay AID1461 (National Center for Advancing Translational Sciences (NCATS), 2008).
# Out of some 220,000 compounds screened, about 2,300 (1%) were called active. Inconclusive means that the source gave no clear call. Such entries were picked first, then a sample of the others. Calls come from the whole dose curve; as a rule, active = well fitted inhibition curve with a large enough effect; inconclusive = small, poorly fitted or top-dose-only effect, or effect the other way; inactive = no such curve, though single readings can be large or run the other way. No potency is given beside an inconclusive call; the fits are too rough.
# Molecular target: Neuropeptide S receptor (Homo sapiens) (UniProt Q6W5P4)
# Test: qHTS Assay for Antagonists of the Neuropeptide S Receptor: cAMP Signal Transduction; note: nearly all actives have a fitted effect of over 50% in size
# Conditions: CHO-NPSR cells, cAMP TR-FRET, antagonist mode; activity change, negative = inhibition: at 38.3 µM (top of the series) unless noted
# % is set by controls: 0 for no effect and ±100 for the full control effect; potency is the fitted concentration of half-maximal effect; tags give direction and shape of the fitted curve.
# Chain of UniProt Q6W5P4 (Q6W5P4 whole entry, looked up): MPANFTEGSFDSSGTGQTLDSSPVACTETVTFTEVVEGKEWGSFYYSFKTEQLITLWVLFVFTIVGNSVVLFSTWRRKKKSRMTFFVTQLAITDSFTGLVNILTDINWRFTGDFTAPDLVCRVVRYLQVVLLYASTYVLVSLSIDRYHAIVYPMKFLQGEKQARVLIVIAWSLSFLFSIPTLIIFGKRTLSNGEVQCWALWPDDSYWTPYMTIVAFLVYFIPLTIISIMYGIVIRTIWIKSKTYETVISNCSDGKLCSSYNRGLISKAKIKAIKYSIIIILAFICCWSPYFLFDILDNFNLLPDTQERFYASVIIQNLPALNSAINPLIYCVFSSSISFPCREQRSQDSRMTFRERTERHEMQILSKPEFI
SMILES,Potency,"activity change, negative = inhibition"
Cc1cc(=O)[nH]c2c1c(=O)[nH]n2C1CC(C)N(C)CC1C (stereo not drawn),"inconclusive [inhibitor, full curve]",–
C=CSc1sc(Cl)c(N2CCOCC2)c1[N+](=O)[O-],–,inactive: -10.1%
O=C(CCCn1c(SCC(=O)c2ccccc2)nc2ccccc2c1=O)NCC1CCCO1 (stereo not drawn),"inconclusive [inhibitor, partial curve, poor fit]",–
O=S(=O)(N/N=C/c1c(F)cccc1Cl)c1ccccc1,–,inactive: -6.08% [at 46.1 µM]
O=C(NCc1ccccc1)/C(=C/c1ccc(OC(F)F)cc1)c1ccccc1,"inconclusive [inhibitor, single point]",–
COc1cccc(CN2CCN(Cc3cccc4c3OCO4)CC2CCO)c1 (stereo not drawn),–,inactive: -3.25%
COc1ccc(CCN2C(=O)c3[nH]nc(-c4ccccc4O)c3C2c2ccccc2)cc1OC (stereo not drawn),"inconclusive [inhibitor, single point]",–
O=C(COC(=O)c1ccc2ncsc2c1)Nc1ncc(Cl)cc1Cl,–,inactive: 10.5%
O=S(=O)(c1ccccc1)n1ccc(-c2cnc(-c3ccccc3)s2)n1,"inconclusive [inhibitor, partial curve]",–
CCOCCCN(Cc1ccco1)C(=O)c1cc2c(=O)[nH]c3ccc(C)cc3c2s1,"inconclusive [inhibitor, single point]",–
CCN(C(=O)COC(=O)c1ccccc1Nc1cccc(C)c1C)C1CCS(=O)(=O)C1 (stereo not drawn),"inconclusive [inhibitor, single point]",–
Cc1ccc(Oc2c(C(N)=O)cc([N+](=O)[O-])cc2[N+](=O)[O-])cc1,"inconclusive [inhibitor, single point]",–
Cc1cc(C)cc(-n2c(SCC(=O)NCc3ccc4c(c3)OCO4)nc3ccccc3c2=O)c1,–,inactive: -18.8%
O=C(NC1CCCC1)C(c1ccncc1)N(Cc1ccco1)C(=O)c1ccc(-c2ccccc2)[nH]1 (stereo not drawn),"inconclusive [inhibitor, single point]",–
CC(C)NS(=O)(=O)c1ccc(CCC(=O)O)cc1,"inconclusive [inhibitor, partial curve]",–
O=C(CC(=O)c1ccccc1O)c1ccc(F)cc1,"inconclusive [inhibitor, single point]",–
O=C(CSc1ncccc1-c1nc2ccccc2[nH]1)NCc1ccco1,"inconclusive [activator, partial curve, poor fit]",–
O=C1C(=O)c2ccc(-c3ccccc3)cc2-c2ccccc21,active: 3.98 µM,–
C=CC[n+]1ccc(/C=C2\C=Cc3cc(C)ccc3N2CC)c2ccccc21,"inconclusive [inhibitor, single point]",–
O=C(CNS(=O)(=O)c1cccc2nsnc12)NCc1ccc(Cl)cc1,"inconclusive [inhibitor, full curve, poor fit]",–
COc1ccc(NC(=O)COC(=O)c2ccc(S(=O)(=O)N(C)c3ccccc3OC)cc2)c(OC)c1,–,inactive: -10.1%
Oc1ccccc1-c1nnc(-c2ccc(C(F)(F)F)cc2)o1,–,inactive: -6.17% [at 46.1 µM]
CS(=O)(=O)c1nc(-c2ccccc2)cc(C(F)(F)F)n1,active: 10 µM,–

SMILES,Potency,"activity change, negative = inhibition"
COc1ccc(CCN2CC(C(=O)Nc3ccc4c(c3)OCO4)CC2=O)cc1OC (stereo not drawn),–,inactive: 5.49%
OC(CC1CC12c1ccccc1-c1ncccc12)(c1ccccc1)c1ccccc1 (stereo not drawn),"inconclusive [inhibitor, single point]",–
Cc1ccc(-n2nc(C(=O)c3ccccc3)n3c(=O)cc(-c4ccccc4)nc23)cc1,"inconclusive [inhibitor, single point]",–
CCOc1ccc(OCC)c(NC(=O)Nc2ccc3c(c2)N(C)C(=O)CS3)c1,"inconclusive [inhibitor, single point]",–
CS(=O)(=O)N1CCC(C(=O)c2cccc(Cl)c2)CC1,"inconclusive [activator, single point]",–
CCCc1ccc(/C=C2\C(=O)c3ccccc3C(O)=C2C(=O)OCC)cc1,"inconclusive [inhibitor, single point]",–
O=C(COc1ccc(Cl)cc1)c1ccc(O)cc1O,"inconclusive [inhibitor, single point]",–
CCOc1ccc(NC(=S)NC(=O)/C=C/c2ccc(C)cc2)c([N+](=O)[O-])c1,"inconclusive [inhibitor, single point]",–
Cc1ccc(C(=O)Nc2ccc(C(=O)N3CCCCC3)cc2)cc1,–,inactive: 3.68%
COc1ccc(C)cc1NC(=O)c1cc2ccccc2cc1OCC(=O)NCc1ccco1,"inconclusive [inhibitor, partial curve]",–
CCN(Cc1ccccc1)C(c1ccc(Cl)cc1)c1nnnn1C(C)(C)C (stereo not drawn),"inconclusive [inhibitor, partial curve]",–
COc1ccc(C2(CNC(=O)c3ccccc3[N+](=O)[O-])CCOCC2)cc1,–,inactive: 11.8%
CC1CCN(S(=O)(=O)c2cccc(C(=O)N(Cc3ccccc3)c3ccccn3)c2)CC1,"inconclusive [activator, single point]",–
O=C(c1ccco1)N1CCN(c2ncnc3scc(-c4cccs4)c23)CC1,"inconclusive [inhibitor, single point]",–
CCCn1nnc(NC(=O)c2ccc(Br)cc2)n1,"inconclusive [inhibitor, full curve, poor fit]",–
COc1cnc(-c2ccccc2)nc1Oc1cccc(C)c1C,"inconclusive [inhibitor, partial curve]",–
C=CCn1c(CSCc2ccccc2)nnc1SCC(=O)N1CCN(c2ccccc2)CC1,"inconclusive [inhibitor, single point]",–
COc1ccccc1OCCOC(=O)Nc1ccccc1,"inconclusive [inhibitor, single point]",–
CSc1ccccc1NC(=O)c1cc(C2CC2)on1,"inconclusive [inhibitor, single point]",–
CCCOc1cccc(/C=N/NC(=O)c2csc(C)c2C)c1,"inconclusive [inhibitor, single point]",–
CC(CNc1ccccc1O)C(=O)O (stereo not drawn),–,inactive: 2.03%
O=C(Nc1ccccc1Br)C1CC(=O)N(c2ccc3c4c(cccc24)CC3)C1 (stereo not drawn),–,inactive: -21.6%
COc1cc2ccccc2cc1C(=O)Nc1ccccc1N1CCN(S(C)(=O)=O)CC1,"inconclusive [inhibitor, partial curve]",–

SMILES,Potency,"activity change, negative = inhibition"
Oc1cccc(C=NCc2ccccc2)c1O,"inconclusive [inhibitor, single point]",–
CCCCCC(O)c1cccc(OCc2ccc3ccccc3n2)c1 (stereo not drawn),"inconclusive [inhibitor, partial curve]",–
Cc1nnc2ccc(-c3cccc(NC(=O)c4ccc(Br)o4)c3)nn12,–,inactive: -2.12%
COc1ccc(-c2nc(NC(=O)c3ccc(OCC(=O)Nc4ccc(F)cc4)c(OC)c3)sc2C)cc1,active: 10 µM,–
C[C@@]12CC(=O)NC1N(C(=O)c1cccc(C(F)(F)F)c1)C(c1ccccc1OC(=O)c1cccc(C(F)(F)F)c1)C2 (stereo partly drawn),"inconclusive [inhibitor, single point]",–
CC(C)N(C(=O)COC(=O)c1ccccc1C(=O)c1ccc(Cl)c([N+](=O)[O-])c1)C(C)C,"inconclusive [inhibitor, single point]",–
CS(=O)(=O)N(CC(=O)N1CCCCCC1)Cc1ccc(Cl)cc1,–,inactive: -7.16% [at 46.1 µM]
CC(C)CCSc1nc2c(c(=O)[nH]c(=O)n2C)n1CCCc1ccccc1,"inconclusive [inhibitor, single point]",–
COc1ccc2nc(NC(=S)N(C)C)sc2c1,"inconclusive [inhibitor, partial curve]",–
Fc1ccc(Cn2nnnc2C(c2cccs2)N2CCCCCC2)cc1 (stereo not drawn),"inconclusive [inhibitor, partial curve]",–
COc1ccc2[nH]c(=O)c(CN(C(C)=O)c3cccc(C)c3)cc2c1,–,inactive: -8.74% [at 46.1 µM]
COc1cnc(-c2ccccc2)nc1Oc1ccc(C(C)(C)C)cc1,"inconclusive [inhibitor, partial curve]",–
Cc1nc(Nc2ccc3c(c2)OCO3)c2oc3ccccc3c2n1,"inconclusive [inhibitor, single point]",–
CN1CCCCCC1=Nc1ccccc1C#N,–,inactive: 11.9% [at 46.1 µM]
O=[N+]([O-])c1cc(S(=O)(=O)C(F)(F)F)ccc1Sc1nc2ccccc2s1,"inconclusive [inhibitor, single point]",–
N#Cc1cn(-c2ccccc2)nc1-c1ccc2c(c1)OCCO2,"inconclusive [inhibitor, single point]",–
Cc1c(N2C(=O)/C(=C\c3ccccc3O)SC2=S)c(=O)n(-c2ccccc2)n1C,"inconclusive [inhibitor, single point]",–
COc1ccc2c(c1OC)C(=O)N1c3ccccc3C(=O)N(c3ccccc3F)C21 (stereo not drawn),"inconclusive [inhibitor, partial curve]",–
Cc1cc(NC(=O)C2CCCC2)n(-c2nc3ccccc3[nH]2)n1,"inconclusive [inhibitor, partial curve]",–
CN(C)c1ncc(S(=O)(=O)c2ccc(Cl)cc2)c(-c2ccccc2)n1,"inconclusive [inhibitor, single point]",–
CCO[C@@H]1OC(C(=O)N2CCN(Cc3ccccc3)CC2)=C[C@H](c2ccc(C(F)(F)F)cc2)[C@H]1CCCO,"inconclusive [activator, partial curve]",–
Cc1ccc(NC(=O)c2cc(S(=O)(=O)NCCC3=CCCCC3)ccc2F)cc1,–,inactive: -17.9% [at 46.1 µM]
